# Laboratory results reported in ChEMBL document CHEMBL4888484, “Replenishing the malaria drug discovery pipeline: Screening and hit evaluation of the MMV Hit Generation Library 1 (HGL1) against asexual blood stage Plasmodium falciparum ,using a nano luciferase reporter read-out” (2022).
# Hit rate of the full screen: of about 150,000 compounds, about 540 (0.36%) showed an effect of 50% or more. The list shows a part of the results.
# Test system: Plasmodium falciparum
# Assay: Primary screen in NF54 nanoGlo assay, in single point, at 2uM, 72h; a lower Z score goes with more inhibition
# Assay type: functional, Erythrocyte
# Settings: timepoint 72 hour
Compound,% Inhibition,Z score
O=c1[nH]c2cccc(CN3CCOCC34CCC4)c2o1,-7%,1.07
O=C([C@H]1CC12CC2)N1CCC(c2n[nH]c(=O)o2)CC1,4%,-0.81
COc1cccc2c1OC[C@@]1(C(=O)O)CN(CCC(F)(F)C(F)F)C[C@@H]21,-18%,1.92
Cc1noc(C)c1C(C)(C)C(=O)NCCc1nc(=O)o[nH]1,-10%,1.75
CC(C)(C)c1nc(CN2C3CCC2c2ccccc23)no1,22%,-2.84
Cc1cc(CC(C)C)nc(N2CC[C@@]3(C2)NCCc2[nH]cnc23)n1,-3%,0.48
O=C(Nc1ccc(=O)n2c1[C@@H]1C[C@@H](CN(C(=O)c3ccc(F)cc3)C1)C2)c1cncnc1,9%,-1.12
CC(=O)Nc1ccc(-c2c(C#N)c(N)nc3c2[C@@H]2CCC[C@H](C3)N2C)cc1,-5%,0.65
CN(CC(C)(C)O)S(=O)(=O)c1ccc(C#N)c(C(F)(F)F)c1,-14%,1.61
c1cc2c(c(-c3cncnc3)c1)CCNC2,-7%,0.93
Cc1ccc(F)c(C(=O)N2CCN([C@H]3CN4CCC3CC4)CC2)c1Cl,-9%,0.86
Cc1c(C(=O)N2CCN([C@H]3CN4CCC3CC4)CC2)[nH]c2c(F)cccc12,-27%,2.57
CO[C@H]1C[C@H]2CC[C@@H](C1)N2CCOCc1ccccc1,-5%,0.88
CC(C)Cc1ccc(CN2[C@@H]3CC[C@H]2C[C@@H](O)C3)s1,21%,-2.68
c1ccc2[nH]c(C3CC4CCCCC4N3)nc2c1 (centres undefined),11%,-0.9
O=C(Cc1ccc2c(c1)OCO2)N1CC(N2CCc3sccc3C2)C1,-8%,1.42
CCCn1cc(C(=O)Nc2ccc3c(c2)OCCO3)c2cccnc21,-1%,0.08
CN(C)S(=O)(=O)Nc1cccc(OC(=O)N2CCOCC2)c1,36%,-5.14
N#CC1CNCC12C(=O)Nc1ccccc12 (centres undefined),1%,-0.11
C(#CCN1CCCCC1)COC/C=C/c1ccccc1,-5%,0.93
CS(=O)(=O)Cc1nc(CN2C3CCC2c2ccccc23)cs1,-10%,1.38

Compound,% Inhibition,Z score
COCC1(C(=O)N2C[C@@H](c3cccc(OC)c3)[C@@H]3[C@H]2C2CCN3CC2)CCC1,-5%,0.89
O=C(COc1ccccc1Cl)N1C[C@H]2CC[C@@H](C1)N(CC1CC1)C2,-5%,0.56
CN(CCc1ccccn1)C[C@H]1C[N@@]2CC[C@H]1C[C@@H]2CNS(=O)(=O)c1ccc(Cl)cc1,27%,-3.1
CCN(CC)C(=O)c1ccc2c(c1)N(CC(=O)N1CCC3(CC1)OCCO3)C(=O)CO2,3%,-0.45
CCc1c(C(=O)N[C@H]2COc3cccc(F)c32)cnn1CC(C)C,-16%,2.26
O=c1[nH]c2ccc(NS(=O)(=O)c3ccccc3Cl)cc2o1,14%,-2.07
N#Cc1cccnc1N1C[C@H](c2ccccc2)[C@@H]2[C@H]1C1CCN2CC1,7%,-1.41
CN(C)c1ccnc(N2C[C@@H](c3ccc4c(c3)OCO4)[C@@H]3[C@H]2C2CCN3CC2)n1,-7%,0.91
Cc1ccc2c(c1)C[C@]1(CN2C)C(=O)NC(=O)N(C2CCCCCC2)C1=O,28%,-3.12
CC(=O)[C@H](C#N)c1c(Cl)cccc1Cl,-24%,2.22
CC(C)(C)OC1CC(N2C[C@H](O)C3(CC3)C2)C1 (some centres undefined),2%,-0.17
O=C(c1ccc2[nH]c3c(c2c1)CCCC3)N1CC1,-7%,1.42
CN1CCN(CC(=O)N2CCC3(CC2)OCCO3)c2ccc(Cl)cc21,-13%,2.46
COc1ccc(N2C(=O)NC(=O)C3(Cc4cccc(F)c4N4CCOCC43)C2=O)cc1 (centres undefined),-5%,0.72
CCOc1cc(C(=O)N2CCC[C@H]3CN(C)C[C@H]32)ccn1,-4%,0.62
NC1(c2nc(C[C@H]3CCCO3)no2)CCCCC1,-1%,0.14
Cc1ncccc1CNC1CCC(F)C1 (centres undefined),2%,-0.25
O=C(N[C@H]1COC[C@@H]1N1CCOCC1)c1cc(Cl)c[nH]1,-7%,1.15
C[C@@H](Cn1cc(Br)cn1)NCCCN(C)CC(F)(F)F,-14%,1.27
Cc1c[nH]nc1CN1C[C@@H](CO)[C@H](c2ccc(Cl)cc2)C1,8%,-1.39
O=c1ccc(-c2ccc(OC(F)(F)F)cc2)c2n1C[C@@H]1CNC[C@H]2C1,-2%,0.31
